Reference: the supplement of paper PMC11417369
This is one part of the list.

tested on: PfSIP2 AP2 domain 1 (GST-tagged); experiment: gcPBM binding intensity (ln(normalized median fluorescence intensity)); higher = stronger DNA binding
Summary of the method: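 Binding intensity is defined as the maximum Masliner-normalised natural-log median intensity across replicate spots for either probe orientation. It was measured on an Agilent 4 × 180k array of primer-extended double-stranded 36-bp intergenic genomic probes and negative controls, to which GST-tagged P. falciparum DNA-binding domains made in E. coli were applied for 1 h in 1× PBS with 1% milk, 0.2 mg/ml BSA, 0.5% salmon testes DNA and 0.03% Triton X-100. Detection was by Alexa488 anti-GST antibody and scanning at 488 nm.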

Sequence | gcPBM binding intensity (ln)
CTTTTTAATTAATACACACACACACCCATATATATA [CACACA_site2292] | 7.6
ATCACTTGAGAATAATTACATTAATATATATTTATG [TGCATGCA_negctrl_site581] | 6.9
CATATACATACACATACACACATACAGACATACACA [CACACA_site6919] | 7.38
GGGAAAGAACCATATACATGCATATTTACCGTTAAA [TGCATGCA_site519] | 6.64
TGAAATTTTATTAATGTGCACATATATTTATTGTTC | 8.56
TGGGTATATATAAAAGGTACACAAAATGAAGATATA [XGTACX_site4994] | 7.25
TAATTTCTTATGTATTGTACAAATAATATATTATAT [XGTACX_site1037] | 7.02
TTTTCTGTGTTTTTGGGTACACACAAATAGCTTGTA [XGTACX_site8553] | 7.14
ATATGTGTTAAAAATGCACACAAAAAAATATACATA [CACACA_site7988] | 7.38
CAATTTTACTCATAAACACACATATATATGTTATTA [CACACA_site3152] | 6.97
ATGGTTTAATTATATACACACTCGAAAATAACGACA [CACACA_site3258] | 7.1
TGATATTATATTGTGATGCACTTTAAAAATATAAAG [GTGCAC_site9509] | 10.3
CTTATTTTATTCGAATGTACATAATTGTTAGACATT [XGTACX_site8583] | 7.16
AAAAAAAGGATGTACGTATCATAATTTTATTTTATA [CACACA_negctrl_site1543] | 6.98
TTTTACAAATGTTTTACACACACATAATTGTATCAA [CACACA_site4166] | 7.01
AATAATAACAAATGAACACACATATAGATGAGCAAA [CACACA_site7076] | 6.81
CTTAAGTAAAATTAAAGTACATGGACAAAAAATATA [XGTACX_site7900] | 7.2
TATCTCATGCGCACAAAAATATATGCAAAGAGTATA [TGCATGCA_negctrl_site201] | 8.21
TATTGTAGTCATGCACGTACAAAAGGAAAGTTAAAA [XGTACX_site4446] | 7.24
ATAAATTAATGGAGAAATCTTATGAATTTATTTTAA [CACACA_negctrl_site1068] | 6.53
AAATAAAATATTACATGTACATGTTCATAAAAAAAA [XGTACX_site1067] | 6.98
TACATACACAGACACACACACATATATATATATATA [CACACA_site3557] | 9.82
AATAAAAAGGAACACACACACACACCGATATATATA [CACACA_site5895] | 7.16

Sequence | gcPBM binding intensity (ln)
AATATATACATATATACACACACATATATTATATAT [CACACA_site7980] | 7.09
TAAATATAAGTGTACATACACACTTTACAATCTCAT [CACACA_site3006] | 6.97
AAAGAAGAAAAATATAGTACAGGGCACATGTCCTGT [XGTACX_site6293] | 6.67
AAAAAAAAAAAAATTGCATGTAAATGAAATAATAAA [TGCATGCA_site116] | 6.89
ATTTAAATTTAAAAAACACACATAATATGATATATA [CACACA_site1973] | 7.04
TTATTTTTATATTTCACACACATATACTTTTACATA [CACACA_site4097] | 7.28
CCTATAAAACCATATACACACATATATATAAAAAAA [CACACA_site4013] | 7.21
TGTTTCTAAAAATTTACACACAAAATATTTCTACAT [CACACA_site4098] | 6.98
TTATACGATAATATGACACACAATACAAAAATGTAA [CACACA_site1918] | 6.89
TATATTTTTATGTGTGTGCACAAAATAACAAAATAT [GTGCAC_site9596] | 9.36
ATTATTTTTTTTGAAGTGCAATATTATTTTTAATCA | 8.2
GTTAAGTGGATATATACACACATATGCAATACATGA [CACACA_site7427] | 6.95
TATACTACCCAGAGCTGTACAAAATAATAATAAGTT [XGTACX_site1045] | 7.06
ATGGTTATATTTGAAGTGCAAAAAAAAATATATGTA | 8.55
ATGTGGATTTTATAATGTACATATGATATTATTTTG [XGTACX_site7930] | 7.01
CAATTCAATATATATACACACACACTATTAATAATT [CACACA_site9256] | 7.03
ATTCCTTTATTATCACGTACTTATAAAATATAGTAT [XGTACX_site7498] | 7.81
ATAAACAGATAAAAGGGTACACACATATATACATGT [XGTACX_site452] | 7.08
TTATATATATATTGTTCACACATAATATAAATATTT [CACACA_site5835] | 6.81
TTAAATAAAATAAAAACATGCACACTTTATTTTTTT [TGCATGCA_site719] | 9.94
TTTTAATAAATCATTTTCCTAATATTTATATTTGCT [TGCATGCA_negctrl_site232] | 6.71
TTTTTCATTTAGCTTTTACACACTATATATTATTGA [CACACA_site7888] | 7.16
CTCTTTTCTTATAATACACACAGTAATATTTATATA [CACACA_site6824] | 7.53

Sequence | gcPBM binding intensity (ln)
AATAAAAAAAATTTCTGTACATATATTTATTATATA [XGTACX_site1883] | 6.93
CAAACCCACCAACACACACACACAAAAATGATTAAA [CACACA_site2432] | 7.14
TACTTTTTTATTTGGTGTACAAATAAAATCATAATG [XGTACX_site1802] | 7.26
GAAGATATATAATAATTCATAGTTTTTTAATTTAAA [TGCATGCA_negctrl_site295] | 6.52
ATATATTTTGATTGCACACAGAATTTAAATCATGAT [CACACA_site2343] | 7.18
AAAATAAAAAAAATAAATAAAAAAAATAATAATAAA [CACACA_negctrl_site563] | 6.55
TCATAAATATAAAGTGTGCACTTGAATAATATGTAT | 9.52
TAAATAAATCTGTGCTTGCACTTTTTTTGTTATTTT | 7.74
ATATAAACATATAATAGTACACTTCGATAATTTTAT [XGTACX_site3321] | 7.09
ATTTAACATATAAAATGTACATATATATATATATTT [XGTACX_site2525] | 7.15
GTACCATCAAAATAAATATATATATATATATATTTT [GTGCAC_negctrl_site646] | 7.57
TTTGTGTTGTATTTTTGTACATAAAATAAACTTAAA [XGTACX_site4637] | 7.16
TTTCTTTTTTCTTCAGTGCATTAAAATTAACAAAAG | 9.07
GAGCCCAAAAAATTAGGTACGTATAAAGAGGTATTT [XGTACX_site5348] | 6.79
CATATATATATTGGAAGTACATATTTAATATTCATT [XGTACX_site3545] | 6.99
AGGAAAATTTTATTTGCACACATTATTACGTCTAAA [CACACA_site2337] | 7.01
TCTTTTTTCATATTTTCACACATGTCTTTATATTTA [CACACA_site6025] | 7.17
ACATGTAATATAATGTGTACATATACAAAGGTATAT [XGTACX_site4145] | 7.2
ATAAAGTATATTATATGTACATATATATATTATATA [XGTACX_site1345] | 7.18
AGATGAGAAATATATACACACAATAATACCTATTTA [CACACA_site876] | 6.85
ATATAACATAGACACACACACATATAAATATATTAT [CACACA_site7865] | 7.2
CTTTATAAAATAAGAGTGCGTTATATTGAATTGTAT [GTGCAC_site9390] | 8.26
ATATAAGATTTAAGAAGTACAATTATACAGTAGATC [XGTACX_site7501] | 7.18

Sequence | gcPBM binding intensity (ln)
ACGTTTTATAATTAATGTACAAATATTAAAATTGCA [XGTACX_site7869] | 7.11
GAATAAATTAAAAATGCACACTTTGATGGGTACATT [CACACA_site5220] | 7.11
TATATTTGCAGTAATAATAATTATTATAAAAGATAA [XGTACX_negctrl_site547] | 7.04
TTATTTATTTTAAATTCACACATCGTGCTATTATAT [CACACA_site5003] | 7.87
TCATATATTTATGTATGTACATATATATATAGATTA [XGTACX_site380] | 7
TATGAATGGTTAAGTACACACATATTAAGATATGTA [CACACA_site5852] | 6.99
TTTTTATAACGTAATAAATAAAACGTCTATACTATA [XGTACX_negctrl_site176] | 6.77
AAAAATATAATATAATGTACACAAAAAAAAAAATTC [XGTACX_site3657] | 7.25
AATTAGACATAATATACACACATATATTATAGATAT [CACACA_site7297] | 7.04
TATATTATTATAATTTGTACATATCTAATTATATAT [XGTACX_site5342] | 6.96
TAAAGATATTATTTTTGTACATATTGATATAATGAA [XGTACX_site6571] | 6.76
AATGATAATATTTCCTTCTTTTTTACTTCTTTCTTT [CACACA_negctrl_site776] | 6.79
AAAATGGTTTATAAATGTACATATATTATATATAAC [XGTACX_site7959] | 7.03
CCTATCCAGACATATACACACATATCTATTTATATA [CACACA_site5001] | 7.34
TATAAAAAATAATACACACACATGGCGACAAAATAA [CACACA_site2420] | 7.18
TTTACTTTCCCAAGTTGTACTGCTTCTAAGCTTTTT [XGTACX_site2708] | 6.84
CATATAAAATAATTCACACAAATATACAAATACCCA [CACACA_site5340] | 6.94
AAAAAAAATTTCTTCTGTACGCATAAATTTTTATTA [XGTACX_site8721] | 7.21
TATTTAATTTTTAAATGTACATATAAAATAATATAT [XGTACX_site2422] | 7.03
TTTTTCAGAAAAGAAACACACATATATATATTTATA [CACACA_site2372] | 6.98
CTCAAAGGAATATTCACACATAAATTATAGACTACA [CACACA_site6050] | 7.04
